In PubChem BioAssay (NCATS):
Inconclusive means that the source gave no clear call. Such entries were picked first, then a sample of the others. Potencies beside an inconclusive call are fits to weak or partial responses and may not hold up. Calls of active or inactive are those of the source. Calls come from the whole dose curve; as a rule, active = well fitted inhibition curve with a large enough effect; inconclusive = small, poorly fitted or top-dose-only effect; inactive = no such curve, though single readings can be large or run the other way.

What follows are compounds tested against Rap guanine nucleotide exchange factor 3 (Homo sapiens) (UniProt O95398) (assay: Confirmatory qHTS for antagonist of cAMP-regulated guanine nucleotide exchange factor 3 (EPAC1) (AID 1645880; note: nearly all actives have a fitted effect of over 55% in size)). Conditions: EPAC1 Rap1B-BODIPY-GDP exchange, fluorescence; series mostly up to 115 µM.
Method in brief: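 Released BODIPY-GDP fluoresces less than Rap1-bound BODIPY-GDP; the signal is followed at 480/540 nm at 5-min intervals over 30 min, after 5 min at room temperature. Reactions contain 100 nM EPAC1, 250 nM RAP1B-BODIPY-GDP and 50 uM GDP; results are normalized to ATA and DMSO.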
Potency is the fitted concentration of half-maximal effect; tags give direction and shape of the fitted curve.

Sequence of UniProt O95398 (O95398 whole entry, looked up): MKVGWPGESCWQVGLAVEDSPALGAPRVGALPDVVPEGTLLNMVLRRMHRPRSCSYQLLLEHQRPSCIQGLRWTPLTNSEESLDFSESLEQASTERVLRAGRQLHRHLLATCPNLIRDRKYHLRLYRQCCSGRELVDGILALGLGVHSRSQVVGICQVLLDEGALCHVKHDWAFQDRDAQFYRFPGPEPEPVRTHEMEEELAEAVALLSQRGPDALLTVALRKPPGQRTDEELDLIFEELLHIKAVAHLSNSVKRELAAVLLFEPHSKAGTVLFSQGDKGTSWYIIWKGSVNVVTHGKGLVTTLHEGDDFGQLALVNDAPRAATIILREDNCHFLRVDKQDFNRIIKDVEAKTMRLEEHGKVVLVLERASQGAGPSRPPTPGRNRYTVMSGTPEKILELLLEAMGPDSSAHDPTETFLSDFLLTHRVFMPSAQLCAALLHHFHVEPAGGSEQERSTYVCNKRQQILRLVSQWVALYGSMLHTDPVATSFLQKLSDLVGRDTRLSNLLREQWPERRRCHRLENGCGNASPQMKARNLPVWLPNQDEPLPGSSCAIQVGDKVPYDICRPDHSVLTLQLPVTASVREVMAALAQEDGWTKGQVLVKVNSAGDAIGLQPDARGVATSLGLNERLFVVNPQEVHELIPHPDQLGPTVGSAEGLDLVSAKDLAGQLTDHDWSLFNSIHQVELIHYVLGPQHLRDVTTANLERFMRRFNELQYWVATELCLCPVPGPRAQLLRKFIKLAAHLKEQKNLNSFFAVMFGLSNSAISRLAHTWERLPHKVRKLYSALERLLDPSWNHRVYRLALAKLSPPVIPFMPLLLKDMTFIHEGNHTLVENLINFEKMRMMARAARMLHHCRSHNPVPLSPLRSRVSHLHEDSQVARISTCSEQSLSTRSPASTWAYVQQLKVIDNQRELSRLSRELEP

Potency, inconclusive:
COc1ccc(OC)c(NC(=O)C2(C)CCN2CCc2ccccc2)c1 (stereo not given) 84.9 µM [inhibitor, partial curve, poor fit]
O=S(=O)(Nc1nccs1)c1ccc(Nc2nnc(-c3ccccc3)c3ccccc23)cc1 28.2 µM [inhibitor, partial curve]
CN(C)c1ccc(-c2[nH][nH]c(=O)c2NC(=O)c2ccc3ccccc3n2)cc1 42.6 µM [inhibitor, full curve]
CC1CC(C)CN(C(=S)SCc2nc(N)nc(Nc3ccccc3)n2)C1 (stereo not given) 84.9 µM [inhibitor, partial curve, poor fit]
O=c1nc(/C=C/c2cccn2-c2ccc([N+](=O)[O-])cc2)cc(C(F)(F)F)[nH]1 47.8 µM [inhibitor, partial curve, poor fit]
Cc1[nH]n(-c2ccccc2)c(=O)c1C=Nc1ccc(S(=O)(=O)N=C(N)N)cc1 47.8 µM [inhibitor, partial curve]
CC(C)C[C@H]1COCCS(=O)(=O)N1Cc1ccc(Cl)c(Cl)c1 44.7 µM [inhibitor, partial curve, poor fit]
CCOC(=O)c1ccccc1NC(=O)c1c(C)oc2ncnc(N3CCOCC3)c12 95.3 µM [inhibitor, partial curve, poor fit]
Cc1ccccc1NC(=O)CN1C(=O)N/C(=C\c2ccccc2OCc2ccc(C(=O)O)cc2)C1=O 33.8 µM [inhibitor, full curve]
O=S(=O)(Nc1nc2ccc(Cl)cc2s1)c1cccs1 14.1 µM [inhibitor, partial curve, poor fit]
N#CC(c1ccccc1)C(CC(=NO)c1ccccc1)c1ccccc1 (stereo not given) 19 µM [inhibitor, full curve, poor fit]
Cc1ccc(-c2ccc(CN3C(C(C)C)C(=O)N(Cc4cn(CCC5OCCO5)nn4)CCS3(=O)=O)cc2)c(C)c1 (stereo not given) 33.8 µM [inhibitor, partial curve, poor fit]
Nc1ccc(C(=O)N2CCN(S(=O)(=O)c3ccc(Cl)s3)CC2)cc1[N+](=O)[O-] 53.6 µM [inhibitor, partial curve, poor fit]
O=S(=O)(Nc1ccccc1-c1ccccc1)c1ccccc1 53.6 µM [inhibitor, partial curve, poor fit]
Cc1ccc2nc(-c3cccc(Br)c3)c(Cc3ccccn3)n2c1 84.9 µM [inhibitor, single point]
Cc1occc1C(=O)N/N=C/C1=C(N2CCOCC2)C(=C/c2ccc(Cl)cc2Cl)/CC1 84.9 µM [inhibitor, single point]
Cc1cc(C(C)(C)C)cc(C)c1COC(=O)c1cccnc1 84.9 µM [inhibitor, partial curve, poor fit]
CC(C)=CCc1c(O)cc(O)c2c1OC(c1ccc(O)cc1)CC2=O (stereo not given) 84.9 µM [inhibitor, partial curve, poor fit]
O=C(Cc1c(Sc2ccccc2)c2ccccc2n1Cc1ccccc1)NCCO 8.49 µM [inhibitor, full curve, poor fit]
CCOC(=O)c1c(NC(=O)C2C3C=CC(C3)C2C(=O)O)sc2c1CCC(CC)C2 (stereo not given) 84.9 µM [inhibitor, partial curve, poor fit]
C[C@H]1CN([C@@H](C)CO)S(=O)(=O)c2ccc(Br)cc2O[C@@H]1CN(C)Cc1ccccc1 47.8 µM [inhibitor, partial curve]
CCOC(=O)c1ccc(NC(=O)c2c(N)n(Cc3ccccc3)c(=O)[nH]c2=O)cc1 84.9 µM [inhibitor, partial curve, poor fit]
COc1ccc(OC)c(NC(=O)C(C)Oc2ccc(Br)cc2)c1 (stereo not given) 33.8 µM [inhibitor, full curve, poor fit]
Cc1ccc(C)c(Cn2nc(-c3ccccc3)ccc2=O)c1 89.1 µM [inhibitor, partial curve, poor fit]
Cc1cc(C)c(Cn2cnc3ccccc32)c(C)c1 67.5 µM [inhibitor, partial curve, poor fit]

Potency, inactive:
OC1CCN(c2c3c(nc4cc(-c5cccc(F)c5)nn24)CCCC3)CC1
CC1Cc2nc(SCC(=O)OCc3ccccc3)n(C)c(=O)c2S1 (stereo not given)
CCOC(=O)C(C)Sc1ncnc2c1nnn2-c1ccc(F)cc1 (stereo not given)
O=C(CS(=O)(=O)c1ccccc1)c1cc2ccccc2oc1=O
CC#C[C@@H](CC)c1ccc2ccn(C)c2c1
Cc1cccc(NCC(=O)N/N=C\c2ccc[nH]2)c1
Cc1cc2oc(=O)c(CC(=O)O)c(C)c2c2occ(C(C)(C)C)c12
Cc1cc(C(=O)Nc2ccon2)c(C)o1
COC(=O)C1=CN(c2c(C)cc(C)cc2C)C(N)=C(C#N)C1c1cccc(F)c1 (stereo not given)
CCOC(=O)c1ccc(N2C(=O)c3[nH]nc(-c4ccc(OCC)cc4)c3C2c2cccs2)cc1 (stereo not given)
CCCCOC(=O)Nc1ccc(S(=O)(=O)Nc2nccs2)cc1

Potency, active:
CC(C)=CCc1c(O)cc2oc3c(CC=C(C)C)c(O)c(O)c(CC=C(C)C)c3c(=O)c2c1O 75.7 µM
COc1cccc(OCCOc2ccc(/C=C3\C(=N)N4N=C(S(C)(=O)=O)SC4=NC3=O)cc2OC)c1 37.9 µM
Oc1ccc(Br)cc1C=Nc1cccn2cc(-c3ccccc3)nc12 84.9 µM
CC(/C=C1\SC(=S)N(NS(=O)(=O)c2ccccc2)C1=O)=C\c1ccccc1 22.4 µM
